Source: the supplement of paper PMC10126150
Sequences with one replicate were seen in a single cluster, so their values are uncertain.

The sequences below were run on ATP (assay: switch fluorescence ratio, 500 uM ATP over buffer (Cy3 cluster intensity, sum of 5 cycles each) (fold (ratio)); higher = stronger signal-on switching upon ATP binding; sequences stand for … in TCGTCGGCAGCGTCAGATGTGTATAAGAGACAGTTTTTTTTTTTTTTTTTTTTTTTTT…TC). Details: aptamer strand: ATP DNA aptamer (quencher-CACCTGGGGGAGTATTGCGGAGGAAGG + anchor), 100 nM annealed; ATP concentration: 500 uM; one replicate.
In short: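 The fluorescence ratio divides summed target-cycle Cy3 intensity by summed buffer-cycle Cy3 intensity for each cluster and is averaged per switch-domain sequence. Cy3-labelled switching-strand clusters on a modified Illumina MiSeq flow-cell were annealed to 100 nM quencher-labelled ATP aptamer, then imaged in selection buffer and again after 15 min with 500 uM ATP at 22 °C. Five such cycles were run, with NaOH stripping and re-annealing between them, and clusters outside 100-1000 RFU were excluded.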
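Further: ATP exposure 15 min at 22 °C before imaging.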

Sequence	switch fluorescence ratio
CATTATCTCA	0.961
AAAAATATTA	1.03
GACATACTCG	1.11
GCCCACCTTA	1.03
AACAATTTT	1.02
CGCAGGCTTA	1.1
CAGAAATTTA	0.983
CAAAGGCGGC	0.976
AACTGCTCAG	1.03
GCATGGTCGA	1.01
TTTCCCGTTA	1.01
GACTTTAATG	0.932
GTTGATTAGA	0.995
TACAGAGTAA	1.01
CCAGTAACGC	1.1
ATATATAGCG	0.932
AGATACACGG	1.08
CAACTGATGC	1
GGTTTTTAGG	0.999
ACCCACTAAC	1.43
TGGCGAGCTT	1.01
AATTTATTG	0.982
ATAACTGGAT	1.01

Sequence	switch fluorescence ratio
TAAAGGCATA	0.988
TTACGACGGC	1.13
TCCATACCCT	1.05
GCTACGGGGA	1.07
GATGAAACGG	1.02
AAGGGCCCC	1.07
AGATAAGCC	1.03
TGTGGCGGCT	0.992
TGCTCTTTCT	0.962
TAAAATGAAT	1.04
TCGTAAATAG	1.1
AGTCCTATCA	0.985
TGTACTAAGG	1.07
TGCGTCTGAA	1.05
ATTCGACGCT	1.49
GGGCGCGGCC	1
CCGGTCCCAG	2.33
CAATGTTTCG	1
CACACCACGA	1.49
CCCACTATGG	1.08
CGAAAATTGC	1
GACTTTACTA	1.25
ACTTCTCCTT	1.04

Sequence	switch fluorescence ratio
ATTGGAAACA	1.03
CGCGAGGCTA	1.28
GTGCATGAAG	0.984
ACGTTGACAT	1.28
GTGGCCACTT	0.976
TAGCTTTCTA	1
AGGCTAGTTT	0.959
ATATAAACCG	1.08
GGGTCGATCA	0.952
TGCGTTATAT	2.17
ATTATGCGTT	0.953
CAGCAGCCTG	1.04
TGAACGTCTG	1.02
TATGACTGAA	1.03
ACAGACTGGG	1.07
TTCTTCGTAG	1.02
TCTCCCTCAT	1.12
TTGTTGACCG	1
CGTTGTTTGA	0.971
CATGTTCACT	1.01
CATAAGGCG	0.985
CGCCAACGCG	1.02
TAACCGGTGA	1

Sequence	switch fluorescence ratio
TTTGGGCGG	0.981
ATGAGAGGTG	1.17
GGTGTAACCG	0.976
TTGGGTAGTT	0.966
CCTACTCATT	1.89
GTTGGAGCGT	1.02
ATAGTAGGAT	0.991
GATGCCAGCT	1.01
AGTTTCGGGG	1
TGGTATCAGA	0.98
AGCGATTTGA	1.01
CGCGGTACCG	1.02
TATGAGGCAT	1.05
ATAGCAAAAC	3.68
GATTCCTGAC	1.65
CTGAAAACAA	0.997
ACGGAGCCGC	1.31
AGGCTTATGG	1.13
GATAACTCCG	1.28
TGCAAGCGGA	0.965
CATTACCAAG	1.02
AGTCGCACAT	1.02
GAAAGGCTCG	1.03

Sequence	switch fluorescence ratio
GTCGCTTCGA	0.979
TCGACGCCGA	1.55
TGATCGTCA	1.01
ACTTGATTCG	1.01
GCGGGGGCA	1.11
GAAGTCGAGC	0.968
ATTCAGATA	1.05
CTGCTGACGA	1.12
TGTTAACCTC	1.02
TGTTTAAAGA	1
GGAACGAAAT	1.17
TCATTCC	1.29
GATTGGTCGG	1
TCTTTATGCG	0.955
TTGCTCAATG	1.02
GCTCAGTGGG	1.08
GCGGTGGCTT	0.964
GCTCATACTA	1.04
TATATGTCGA	0.992
GAAATGATCT	0.965
AACCTAGGAG	1.02
CTCTGCTGG	1.29
GTGTGCTGT	1.01

Sequence	switch fluorescence ratio
CTCTCTGGAG	1.02
CGACGGGGGT	1.02
ATTTTGGTAA	0.989
GTTGGTTGC	1.02
TCCGTTACTG	1.1
AAAAAGGGC	1.03
TCAATTCAGA	1.05
TTTCGAACTA	0.986
GTGCGGCGCC	0.944
CGTCGTCGGT	1.02
AAGATGTGGC	1.02
TAGGCACATC	1.09
AAGCACATAA	1.54
CCTATTCTCG	1.02
CACGCACTTT	1.32
TCAGCAACTG	1.26
TCGTGACATA	0.983
TTCAAGCTGT	1.03
CCGACAGGTC	1.48
AGGGATTATA	0.97
ACTGCCGGAG	1.12
ATATGTGTT	0.968
CACGTGCGTT	1.03

Sequence	switch fluorescence ratio
CCGGTAGCG	1.48
GTGTATCACA	1.02
GCTTAGGGGT	1.03
TCATTCATTG	1.01
CTATGATCAG	1.01
TATTTAGCTT	1.03
CTCACATCTA	1.02
CTTTCCTTGA	0.973
ACATGGGTAA	1.01
AGTCGCTC	1
ATTCGAACCT	1.27
ACGGGTACA	1.19
CATTTCACAC	1.01
AGCATAATAA	1.08
TATGGTCGAC	0.985
GGGGGAAATC	1.01
TACGCGAAT	1.05
TCATAATAGG	0.968
CGGTAGTTGC	1.04
ACCGATGATA	1.01
